First the molecules themselves.
T1: UNK ZnF1-3 (human, UniProt Q9C0B0 31-174)
T1 sequence: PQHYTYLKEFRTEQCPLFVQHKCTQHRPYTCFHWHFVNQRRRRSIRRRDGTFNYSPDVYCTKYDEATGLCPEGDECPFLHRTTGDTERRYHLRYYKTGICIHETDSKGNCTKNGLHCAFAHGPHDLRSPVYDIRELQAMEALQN

B1: chr1:151372964:151372965:+_ENSG00000159377_ENST00000290541|hu_hu|motif|central (ssRNA)
RNA: GGGAGUUCUACAGUCCGACGAUCCUUCGAGCGCCGGCUGUACAUGGCCCUGGUCAGCCAUGAAUGAAUAGCUCUAGGACGGUAGCUGUGUCCAUCUCCCAGAAGCUCCUCAUCAAUCACCAUCUGGCCGAGAACUUGCUUCAACAACAGAGGAUUGAGCAUCA
B2: chr5:93601047:93601048:+_ENSMUSG00000058013_ENSMUST00000074733|mus_hu|FALSE|FALSE (ssRNA)
RNA: GGGAGUUCUACAGUCCGACGAUCCAUGAUCCAACCUUUAAGACCUCUAUCUGUGAGAGGAUCAAGGAUGCACCAGUAAAUGUGAACUAAUCAUAGUUUUCUCAUACCAGUCUACUCCAACUUGGCCAGGAUUGAAGGCAGGCACAACAGAGGAUUGAGCAUCA
B3: chr1:193054138:193054139:+_ENSG00000116747_ENST00000432079|hu_mus|motif|central (ssRNA)
RNA: GGGAGUUCUACAGUCCGACGAUCUUAUACUCUGUAUCACACUUUCAGAACAAAGGUGUGAUUCAGUGAAGUAAAACACCACGGUUGUACAGUGUCUAUUAAAACGAAGUUCUCUACAGAGGAAGCUACAGUAUCCUGAAGACUCAACAGAGGAUUGAGCAUCA
B4: chr1:45868982:45868983:+_ENSMUSG00000025995_ENSMUST00000027139|mus_mus|motif|central (ssRNA)
RNA: GGGAGUUCUACAGUCCGACGAUCAGAAGUACAGAACAAAUCUCCUGCAGGUGAGACAGAGAUGUGCUCAAUAGAAGAUCCGGAUCGAGGAAGAAACUCUUUGUUCUUCUCUGAUCCAUCUCGCCACUCCACAAGCACACACUCCAACAGAGGAUUGAGCAUCA
B5: chr3:176767854:176767855:-_ENSG00000177565_ENST00000430069|hu_hu|hu_hu_hu_mus_False|8_98 (ssRNA)
RNA: GGGAGUUCUACAGUCCGACGAUCGACAUCCUUGUUACUUGGAACAUCCUGCCCUCCUUCCCGUAUGCAGUGUCUAAGCACGAGCUGCGUAGGGCCACUCGUGCUGUUCUCACUGAGGUUCCAGAUUCUUGCUGUUGAGUCUCCCAACAGAGGAUUGAGCAUCA
B6: 5490517_5492531_93_5pUTR_ENSMUSG00000056201_ENSMUST00000116560|mouse|control|control (ssRNA)
RNA: GGGAGUUCUACAGUCCGACGAUCUUGAUGACACCAUCAGAGACAGCCACACCAGAGGCCAUGUUUCCGGAAACGAAAGGGAGACAGAAAGAGCAACUGAAGACCUGAGCCGCCGCAGCUGCUGCCGGGAUCCGACUGAACGCGCAACAGAGGAUUGAGCAUCA
B7: chr1:155290277:155290278:+_ENSG00000160752_ENST00000447866|hu_mus|FALSE|FALSE (ssRNA)
RNA: GGGAGUUCUACAGUCCGACGAUCGCACUGCUCUAUGAGACUCUUGAGGCGGUUGUAACUGUCUUCCUCAUACUUGAAGAAAGCAGACUGCAGAUCCAGCGCCUCAUACAGUGCUUUCACCCGAGCCACUUUUUCUGGGUCCUUCAACAGAGGAUUGAGCAUCA
B8: chr12:48362563:48362564:+_ENSG00000134291_ENST00000256686|hu_hu|hu_hu_hu_mus_False|1_18 (ssRNA)
RNA: GGGAGUUCUACAGUCCGACGAUCUCCGUCAAGCCCUUCGAUAGACCCUUGCGGGGGAAACUGUAAUCACUUUGUAUGGGGAAGGAAAAGAAACGCCAAAAACUUUCCAAAAAGCGGUUCAAAAAGCAGGCGGGAGGUUGGGAACAACAGAGGAUUGAGCAUCA
B9: chr8:71637431:71637432:+_ENSMUSG00000006273_ENSMUST00000006435|mus_mus|FALSE|FALSE (ssRNA)
RNA: GGGAGUUCUACAGUCCGACGAUCUGCACAGAGUGGGGAGUCAUGGCUGCACCUGAGAACACACAGCGCAGAGACCCAAACAGCAGACAUGGUAGAGGCACACAGAAUACAGCCAAGAGCUCAAGCCAGGAAGGGACAGGAAUGCAACAGAGGAUUGAGCAUCA
B10: chr4:148551591:148551592:-_ENSMUSG00000063077_ENSMUST00000060537|mus_hu|mus_mus_mus_hu_False|58_78 (ssRNA)
RNA: GGGAGUUCUACAGUCCGACGAUCACCUGACAAAAUUAAAUAUCCCUGUAAAUUAGACAAGAAGCAGCAGGCAACAAAGUCUAUGCUUUGGAAUAUGUGCCAGGAAAAGUCAUCUUGUUUUUAGAUCUCAAGAGACAGUUCACACAACAGAGGAUUGAGCAUCA
B11: chrX:20185780:20185781:-_ENSG00000177189_ENST00000379565|hu_hu|motif|central (ssRNA)
RNA: GGGAGUUCUACAGUCCGACGAUCUUUAGUUAUAGUGAACAGGACAGCACUGGCCUCUCGUUCAGAGAAAAAUUUUUGUCGGAGAAUUUUAUCCAGCAAUUCACCUCCUUUCAUAAGUUCUGUUACUACAUACACAUACUUUCCCAACAGAGGAUUGAGCAUCA
B12: chr5:128440902:128440903:+_ENSG00000066583_ENST00000173527|hu_mus|hu_hu_hu_mus_True|48_58 (ssRNA)
RNA: GGGAGUUCUACAGUCCGACGAUCUUGAACGGUGCUGCCAAGUCCUUUGGGGUAUUGUUCCGUUAUGAUAACUGGAAUUCCUAAAAUCCGGGCCCCUUGCAACAGUCUCUGUCCCACACUAAUGAUGUCCCCAAAGUAUUUGAUCAACAGAGGAUUGAGCAUCA
B13: 63327676_63327796_430_CDS_ENSMUSG00000030451_ENSMUST00000076226|mouse|control|control (ssRNA)
RNA: GGGAGUUCUACAGUCCGACGAUCCUGCCUGCCCCACACCCAGCUUUCCAGGAUUGACUUGGCUCUAUACACAGGUGCAGGUGUCUCUUCUUCUUCCUUCUUCUCUUUGUCAUUAAGAUCUUCUUUCUUGGUUCCACUCUGAGCCAACAGAGGAUUGAGCAUCA
B14: chr7:87838734:87838735:-_ENSG00000075142_ENST00000394641|hu_mus|FALSE|FALSE (ssRNA)
RNA: GGGAGUUCUACAGUCCGACGAUCAUCUUCCCGCUGGUGCUGUAUCGCUUUGCAACUGAAUUCACAGUUUGGGGGCUCAACCUGAAUCCCAUAGUCGUCAGGGCCUUCUGUAGCUCCUGGGGAUCCACGGUGCCACUCCUAUCGCAACAGAGGAUUGAGCAUCA
B15: 38519776_38571995_239_3pUTR_ENSG00000105738_ENST00000222345|human|control|control (ssRNA)
RNA: GGGAGUUCUACAGUCCGACGAUCUGUCCUGGGGGCUCCAGACCGAGUGGCUCAGUAGCGCAGAGCAGGCAGUAGCUGUGGUCGCCCGCCAGCUGGAGGCAGCAAGGAUGUUGUCCUCGCCAUGCCUUAGUGCCUUCUAGACACCAACAGAGGAUUGAGCAUCA
B16: chr22:19452774:19452775:-_ENSG00000070010_ENST00000399523|hu_hu|hu_hu_hu_mus_False|48_48 (ssRNA)
RNA: GGGAGUUCUACAGUCCGACGAUCCUUCUCAUUGUAGUUGAUAGCAAUCACAUCUCCAGUCGUCAGACAGGCGAAGUUUCUCAAUGCGUUUUCUAAUACCGCUUUAGGGUUGGUAAUAUCCAGGAAGUCUGGGCUCUGAGGCUGCAACAGAGGAUUGAGCAUCA
B17: chr17:33883638:33883639:-_ENSMUSG00000077450_ENSMUST00000057373|mus_hu|FALSE|FALSE (ssRNA)
RNA: GGGAGUUCUACAGUCCGACGAUCGCAACAGCGCAGGGGCCACAGGGAGAAGAAGAGAUCGAGAGCUGGGGUUUGGCGUAAAUCUUACAAAGUGUAUAAAGAAUCUGUGUUUCUCUACAUUAACAAAAACCAAAGGCUACAAGACAACAGAGGAUUGAGCAUCA
B18: 2899911_2900031_822_3pUTR_ENSG00000087274_ENST00000398129|human|control|control (ssRNA)
RNA: GGGAGUUCUACAGUCCGACGAUCUCUGAAUCAAAACUUUUUCCUCUUCAUCAACCAGAAUGCCAUGGUAGUCAUGAUAAGCCACUUCUCCAAGGGAAAGCGCCUCCGGGGAGAUUGGCAAGAGGCCACAUUUCAUUGCAGAGACAACAGAGGAUUGAGCAUCA
B19: chr11:47650564:47650565:-_ENSG00000109919_ENST00000530428|hu_mus|FALSE|FALSE (ssRNA)
RNA: GGGAGUUCUACAGUCCGACGAUCAUAGGUAUUGAUGAGAUAGGCCAGUGAGUUACACAGCCACAAAGAAAUGAUGUCACCUAGGAGGCGAGGAAUGAGACCCGCAAAAAAUCCUACGAUGCCUUCUUCCCGGUAGAUGGUUACCAACAGAGGAUUGAGCAUCA
B20: chr19:53703180:53703181:+_ENSMUSG00000024974_ENSMUST00000025930|mus_hu|motif|central (ssRNA)
RNA: GGGAGUUCUACAGUCCGACGAUCAUUUUGAACAUGCUGGUUUAUUCCUUUUCGACGGAAGUGGUCUAGCACUUUGUUUAUGCUGUCGGUUCCAUUUAAAAUGGCCUUUCCUGUUGCUGCUCUAAGAAGUUGUUGCUUCUUUUCCAACAGAGGAUUGAGCAUCA
B21: chr12:57883053:57883054:+_ENSG00000166986_ENST00000262027|hu_hu|motif|central (ssRNA)
RNA: GGGAGUUCUACAGUCCGACGAUCAGUGAGGUCAUCUUGCUCCCAGCCAGAUAACAAAAAAAAAUAUCGGCAGAUUGCACGGGUGGAGAAGAGGUAGUUGCCGCUAUCCAGCUGCAAGACAGGGACCUUAGGCCGGGUCAGGAACAACAGAGGAUUGAGCAUCA
B22: chr1:163117127:163117128:-_ENSG00000143248_ENST00000313961|hu_mus|hu_hu_hu_mus_False|68_88 (ssRNA)
RNA: GGGAGUUCUACAGUCCGACGAUCUGCUACAAAGGAUGUAACUCAACACUCACAGGAACUUUUGGAAGCCUGGCUAAAUGACUACUUGAUUAGCUCCUUAUAAAAUUCAGAGCGCACAAAGCGGGGCAGAGAAUCCUUCUCCAUCAACAGAGGAUUGAGCAUCA

Some of the results follow.

The target of this experiment is T1, UNK ZnF1-3. In words: nsRBNS (natural sequence RNA bind-n-seq); RBNS binding buffer (assumed for nsRBNS): 25 mM Tris pH 7.5, 150 mM KCl, 3 mM MgCl2, 0.01% Triton X-100, 500 ug/ml BSA, 20 U/ml SUPERase-In, 4 C; UNK is unkempt and MSI1 is Musashi-1; names of the RNAs are library labels; protein concentration not given here; high values mean tight binding.
B1 showed a binding signal of 0.93 enrichment R.

B2 gave a binding signal of 1.1 enrichment R.

On to B3, for which the binding signal worked out at 0.49 enrichment R.

In turn, B4 showed a binding signal of 0.554 enrichment R.

B5 showed a binding signal of 0.559 enrichment R.

In turn, B6 registered a binding signal of 1.5 enrichment R.

For the molecule B7, the binding signal amounted to 0.424 enrichment R.

As for B8, the binding signal stood at 1.88 enrichment R.

B9 displayed a binding signal of 2.25 enrichment R.

With B10, the binding signal was found to be 1.39 enrichment R.

In turn, B11 gave a binding signal of 1.07 enrichment R.

As for B12, the binding signal is 0.892 enrichment R.

B13 came in with a binding signal of 0.677 enrichment R.

Turning to B14, the binding signal stood at 0.661 enrichment R.

The molecule B15 came in with a binding signal of 0.548 enrichment R.

Consider B16, for which the binding signal was determined as 0.675 enrichment R.

As to B17, the binding signal stood at 1.82 enrichment R.

For the molecule B18, the binding signal was found to be 1.18 enrichment R.

For the molecule B19, the binding signal was found to be 1.38 enrichment R.

The molecule B20 returned a binding signal of 0.212 enrichment R.

Molecule B21 had a binding signal of 1.97 enrichment R.

On to B22, for which the binding signal stood at 1.16 enrichment R.
